Assay results as given in patent EP4763867A1 (Shanghai Mabgen Biotech Ltd., dated 2026).

Columns and labels:
[1] = molecular target: T1, Human PD-1 antigen protein (Sino Biological, 10377-H08H) (human, UniProt Q15116 part only); assay: SPR (Biacore 8K), fusion protein captured by anti-human IgG (Fc), PD-1 as analyte
T1 construct: also called human antigen protein

[2] = molecular target: T2, human IL-2Rβ/γ receptor heterodimer protein (Acrosystem, ILG-H5283) (human, UniProt P14784 27-239; P31785 23-262, limits assumed); assay: SPR (Biacore 8K), fusion protein captured by anti-human IgG (Fc), IL-2Rβ/γ heterodimer as analyte
T2 construct: SPR analyte
T2 sequence (looked up) 1: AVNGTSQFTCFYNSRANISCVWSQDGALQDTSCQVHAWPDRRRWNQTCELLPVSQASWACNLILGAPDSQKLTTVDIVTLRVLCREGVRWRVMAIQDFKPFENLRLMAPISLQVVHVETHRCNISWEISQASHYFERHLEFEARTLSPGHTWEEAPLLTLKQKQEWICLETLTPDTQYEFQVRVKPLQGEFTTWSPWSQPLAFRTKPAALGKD
T2 sequence (looked up) 2: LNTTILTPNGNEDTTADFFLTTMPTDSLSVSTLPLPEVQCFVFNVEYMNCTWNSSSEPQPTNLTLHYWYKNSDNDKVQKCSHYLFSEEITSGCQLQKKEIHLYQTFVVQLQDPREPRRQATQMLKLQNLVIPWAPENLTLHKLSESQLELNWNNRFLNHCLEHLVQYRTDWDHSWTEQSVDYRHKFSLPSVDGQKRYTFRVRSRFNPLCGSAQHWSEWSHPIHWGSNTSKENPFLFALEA

[3] = molecular target: T2, human IL-2Rβ/γ receptor heterodimer …; assay: as above; remark: listed apart in the source
[4] = molecular target: T3, human IL-2Rα receptor protein (Sino Biological, 10165-H08H) (human, UniProt P01589 22-213); assay: SPR (Biacore 8K), fusion protein captured by anti-human IgG (Fc), IL-2Rα as analyte
T3 construct: SPR analyte; also called CD25
T3 sequence (looked up): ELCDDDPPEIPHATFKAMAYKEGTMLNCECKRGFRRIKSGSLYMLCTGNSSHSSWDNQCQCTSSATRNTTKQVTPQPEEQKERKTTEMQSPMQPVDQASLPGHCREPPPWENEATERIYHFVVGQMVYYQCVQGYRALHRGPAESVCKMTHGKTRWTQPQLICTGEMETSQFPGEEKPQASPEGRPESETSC

T1 sequence (Q15116 25-167 limits assumed): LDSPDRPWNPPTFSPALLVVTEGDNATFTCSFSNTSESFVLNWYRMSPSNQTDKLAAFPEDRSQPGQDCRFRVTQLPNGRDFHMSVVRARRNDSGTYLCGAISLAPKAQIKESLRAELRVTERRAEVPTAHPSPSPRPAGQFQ

B1: A-N88D (Fc fusion)
chain 1: EVQLVESGGGLVQPGGSLRLSCAASGLTFSDYSMSWYRQAPGKGRELVAIISGSGVITHYVDSVKGRFTISRDNAKNTLYLQMRSLRAEDTAVYYCRAVSDWEDYWGQGTQVTVSS[human IgG1 Fc with changes not written out]GGGGSGGGGSGGGGSAPASSSTKKTQLQLEHLLLDLQMILQGISNYKNPKLTRMLTAKFYMPKKATELKHLQCLEEELKPLEEVLQGAQSKNFHLRPRDLISDINVIVLELKGSETTFMCEYADETATIVEFLNRWITFAQSIISTLT
chain 2: EVQLVESGGGLVQPGGSLRLSCAASGLTFSDYSMSWYRQAPGKGRELVAIISGSGVITHYVDSVKGRFTISRDNAKNTLYLQMRSLRAEDTAVYYCRAVSDWEDYWGQGTQVTVSSEPKSSDKTHTCPPCPAPEAAGGPSVFLFPPKPKDTLMISRTPEVTCVVVDVSHEDPEVKFNWYVDGVEVHNAKTKPREEQYNSTYRVVSVLTVLHQDWLNGKEYKCKVSNKALPAPIEKTISKAKGQPREPQVCTLPPSREEMTKNQVSLSCAVKGFYPSDIAVEWESNGQPENNYKTTPPVLDSDGSFFLVSKLTVDKSRWQQGNVFSCSVMHEALHNHYTQKSLSLSPG
notes: also called PD-1-IL-2v (N88D); PD-1-IL2v
Kd [1]: 17.6 nM | koff [1]: 0.00175 s⁻¹ | kon [1]: 99800 M⁻¹ s⁻¹ | fold lower avidity than A-PC [2]: ~13 times | Kd [3]: 3.38 nM | koff [3]: 0.000215 s⁻¹ | kon [3]: 63700 M⁻¹ s⁻¹ | binding result [4]: no binding
